The record followed here is the supplement of paper PMC8821664.

The structures appear in SMILES notation. Where a name gives a salt, the structure may show the parent alone. Some of the results follow. Many values rest on one well or one pass, so single values are uncertain. Positions of bridges follow the written chain, without caps; N, C: chain ends. Non-standard residues stand in square brackets, D forms with d. Residues, ends and D or L forms follow the SMILES beside them. *: point of attachment. Ileψ(thiazoline)Cys = CC[C@H](C)[C@H](N)C1=N[C@H](C(=O)*)CS1; dOrn = NCCC[C@@H](N)C(=O)O
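Further: monoclonal Beas-2B line stably carrying CMV promoter-driven AQP5-HiBiT, 5,000 cells per well in 384-well plates, lytic HiBiT plus LgBiT NanoLuc luminescence, FDA-approved drug library screen.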

The subject of this experiment is Beas-2B AQP5-HiBiT reporter cells. Briefly: AQP5-HiBiT luminescence relative to vehicle (ratio to vehicle); higher = higher AQP5-HiBiT protein abundance. As to conditions: 10 µM; 18 h. (In general: The HiBiT peptide binds its large partner to form an active luciferase.)
On to `CN1CCc2nc(C(=O)N[C@@H]3C[C@@H](C(=O)N(C)C)CC[C@@H]3NC(=O)C(=O)Nc3ccc(Cl)cn3)sc2C1` [Edoxaban Tosylate Monohydrate], for which the AQP5-HiBiT luminescence was determined as 0.778.

Consider `CC(C)C[C@H](NC(=O)[C@H](CCc1ccccc1)NC(=O)CN1CCOCC1)C(=O)N[C@@H](Cc1ccccc1)C(=O)N[C@@H](CC(C)C)C(=O)[C@@]1(C)CO1` [Carfilzomib (PR-171)], for which the AQP5-HiBiT luminescence turned out to be 126. Turning to `CC(=O)OCC(COC(C)=O)OC(C)=O` [Triacetin], the AQP5-HiBiT luminescence came to 0.935.

Consider `Cc1[nH]c(=O)c(C#N)cc1-c1ccncc1` [Milrinone], for which the AQP5-HiBiT luminescence was found to be 1.31.

As to `CN[C@@H]1[C@H](O[C@H]2[C@H](O[C@H]3[C@H](O)[C@@H](O)[C@H](N=C(N)N)[C@@H](O)[C@@H]3N=C(N)N)O[C@@H](C)[C@]2(O)C=O)O[C@@H](CO)[C@H](O)[C@H]1O` [Streptomycin sulfate], the AQP5-HiBiT luminescence was found to be 1.

Turning to `CC1=C(/C=C/C(C)=C/C=C/C(C)=C/C=C/C=C(C)/C=C/C=C(C)/C=C/C2=C(C)CCCC2(C)C)C(C)(C)CCC1` [Beta-Carotene], the AQP5-HiBiT luminescence stood at 1.41. The same measure for `CC(C)/N=c1\cc2n(-c3ccc(Cl)cc3)c3ccccc3nc-2cc1Nc1ccc(Cl)cc1` [Clofazimine]: 0.58; for `NC(=O)OCC(COC(N)=O)c1ccccc1` [Felbamate]: 0.616.

As to `COc1cc(C(=O)NS(=O)(=O)c2ccccc2C)ccc1Cc1cn(C)c2ccc(NC(=O)OC3CCCC3)cc12` [Zafirlukast], the AQP5-HiBiT luminescence was 0.667. For `Cc1ccc(C(=O)Nc2ccc(CN3CCN(C)CC3)c(C(F)(F)F)c2)cc1C#Cc1cnc2cccnn12`, the AQP5-HiBiT luminescence was 0.271. Consider `COc1cc2nc(N3CCN(C(=O)c4ccco4)CC3)nc(N)c2cc1OC` [Prazosin hydrochloride], for which the AQP5-HiBiT luminescence turned out to be 2.56.

`c1ccc(Cc2nc3ccccc3[nH]2)cc1` [Bendazol]: the AQP5-HiBiT luminescence was determined as 1.26.

In the case of `CC(=O)O[C@]1(C(C)=O)CC[C@H]2[C@@H]3CCC4=CC(=O)CCC4=C3[C@@H](c3ccc(N(C)C)cc3)C[C@@]21C` [Ulipristal acetate], the AQP5-HiBiT luminescence worked out at 0.523.

For the compound `CNCCC=C1c2ccccc2CCc2ccccc21` [Nortriptyline hydrochloride], the AQP5-HiBiT luminescence was 1.22. With `COc1ccc2cc([C@H](C)C(=O)O)ccc2c1` [Naproxen], the AQP5-HiBiT luminescence was determined as 0.7. The figure for `O=C(O)c1cc(/N=N/c2ccc(O)c(C(=O)O)c2)ccc1O` [Olsalazine disodium] is 0.71; for `Clc1ccccc1CN1CCc2sccc2C1` [Ticlopidine hydrochloride] it is 0.889. For `Cc1ccccc1N1C(=O)c2cc(S(N)(=O)=O)c(Cl)cc2NC1C` (stereo not given) [Metolazone], the AQP5-HiBiT luminescence was 1.3. With `NC(=O)C(c1ccccc1)(c1ccccc1)[C@@H]1CCN(CCc2ccc3c(c2)CCO3)C1` [Darifenacin HBr], the AQP5-HiBiT luminescence came to 1.51.

With `CC(C)OC(=O)C(C)(C)Oc1ccc(C(=O)c2ccc(Cl)cc2)cc1` [Fenofibrate], the AQP5-HiBiT luminescence is 1.05. As for `O=C(c1cc(Cc2n[nH]c(=O)c3ccccc23)ccc1F)N1CCN(C(=O)C2CC2)CC1`, the AQP5-HiBiT luminescence is 1.15.

Turning to `NC(=O)c1cccnc1` [Nicotinamide], the AQP5-HiBiT luminescence is 0.652. In the case of `Cc1[nH]c2ccccc2c1CCNCc1ccc(/C=C/C(=O)NO)cc1` [Panobinostat (LBH589)], the AQP5-HiBiT luminescence amounted to 4.67. `N[C@@H](C(=O)N[C@@H]1C(=O)N2C(C(=O)O)=C(Cl)CS[C@H]12)c1ccccc1` [Cefaclor monohydrate]: the AQP5-HiBiT luminescence worked out at 0.776. As to `CN(C)c1cc(NC(=O)CNC(C)(C)C)c(O)c2c1C[C@H]1C[C@H]3[C@H](N(C)C)C(O)=C(C(N)=O)C(=O)[C@@]3(O)C(O)=C1C2=O` [Tigecycline], the AQP5-HiBiT luminescence stood at 0.78.

On to `CC(=O)N(CC(O)CO)c1c(I)c(C(=O)NCC(O)CO)c(I)c(C(=O)NCC(O)CO)c1I` (stereo not given) [Iohexol], for which the AQP5-HiBiT luminescence is 0.949. As for `NCC1CCC(C(=O)O)CC1` (stereo not given) [Amstat], the AQP5-HiBiT luminescence worked out at 0.946.

On to `CCCCC1=NC2(CCCC2)C(=O)N1Cc1ccc(-c2ccccc2-c2nnn[nH]2)cc1` [Irbesartan], for which the AQP5-HiBiT luminescence amounted to 0.766. `N=C(N)c1ccc(OCCCCCOc2ccc(C(=N)N)cc2)cc1` [Pentamidine isethionate]: the AQP5-HiBiT luminescence is 0.821. Take `OC[C@@H](O)[C@@H](O)[C@H](O)[C@@H](O)CO` [D-Sorbitol]: the AQP5-HiBiT luminescence is 0.994. The figure for `N#C[C@@H]1C[C@@H]2C[C@@H]2N1C(=O)[C@@H](N)C12CC3CC(CC(O)(C3)C1)C2` [Saxagliptin hydrate] is 0.665; for `CC[C@H](C)[C@H](N)C1=N[C@H](C(=O)N[C@@H](CC(C)C)C(=O)N[C@H](CCC(=O)[O-])C(=O)N[C@H](C(=O)N[C@H]2CCCCNC(=O)[C@H](CC(N)=O)NC(=O)[C@@H](CC(=O)[O-])NC(=O)[C@H](Cc3cnc[nH]3)NC(=O)[C@@H](Cc3ccccc3)NC(=O)[C@H]([C@@H](C)CC)NC(=O)[C@@H](CCCN)NC2=O)[C@@H](C)CC)CS1.[Zn+2]` [Zinc bacitracin] ({Ileψ(thiazoline)Cys}-L[dE]IK[dOrn]I[dF]H[dD]N; lactam 4-C) it is 0.876. Turning to `CNCC(O)c1ccc(OC(=O)C(C)(C)C)c(OC(=O)C(C)(C)C)c1` (stereo not given) [Dipivefrin hydrochloride], the AQP5-HiBiT luminescence was determined as 0.673. The figure for `Cc1ccccc1C(OCCN(C)C)c1ccccc1` (stereo not given) [Orphenadrine hydrochloride] is 0.886; for `OC[C@H]1O[C@@H](O[C@@H]2[C@@H](CO)OC(O)(CO)[C@H]2O)[C@H](O)[C@@H](O)[C@H]1O` (mixture of isomers) [Lactulose] it is 0.636. On to `Nc1ccn([C@@H]2CS[C@H](CO)O2)c(=O)n1` [Lamivudine], for which the AQP5-HiBiT luminescence came out at 0.71. Regarding `C[C@]12C=CC(=O)C=C1CC[C@@H]1[C@@H]2[C@@H](O)C[C@@]2(C)[C@H]1CC[C@]2(O)C(=O)CO` [Prednisolone], the AQP5-HiBiT luminescence is 0.888.

On to `Cc1ccc(C(=O)c2ccc(CC(=O)O)n2C)cc1` [Tolmetin], for which the AQP5-HiBiT luminescence was 0.811. Consider `CCN(CC)C(=S)SSC(=S)N(CC)CC` [Disulfiram], for which the AQP5-HiBiT luminescence was determined as 2.33. In the case of `COc1c(C)c2c(c(O)c1C/C=C(\C)CCC(=O)OCCN1CCOCC1)C(=O)OC2` [Mycophenolate mofetil], the AQP5-HiBiT luminescence worked out at 0.76.
